The whole screen tested about 52,000 compounds, of which about 4,300 (8.3%) were called active. No stated cut-off is given here; in the data, active means survival mostly below about 52% (no sharp cut-off); inactive means mostly above about 56%. The list shows a part of the results.
Test system: DeltatarO mutant
Assay: growth inhibition of S. aureus wild type versus tarO mutant, primary screen, teichoic acid synthesis inhibitors, RN4220, OD600 (AID 463173)
Conditions: OD600, 18 h, active compounds read low, screened at 18.75 µg/mL (by protocol)

Compound	survival
CCn1c(C)c(C)c2cc(C(=O)NCCc3cc(OC)c(OC)c(OC)c3)ccc21	inactive: 67%
Cc1cccc(C(=O)Nc2cccc(C(=O)OCc3cc(=O)n4c5c(sc4n3)CCCC5)c2)c1	inactive: 144%
CCNC(=S)N1CCN(C)CC1	inactive: 96%
CCCc1nc2ccccc2n1CC(O)COc1ccccc1 (stereo unspecified)	inactive: 69%
CCOC(=O)Cn1c(=O)oc2cc(S(=O)(=O)Nc3cc(OC)cc(OC)c3)ccc21	inactive: 74%
COc1ccccc1C(=O)NCc1ccc2c(c1)CCN2C(=O)c1cccc(C)c1	inactive: 77%
COc1ccc(N2CCN(C(=O)C3CCN(S(=O)(=O)c4cnc[nH]4)CC3)CC2)cc1	inactive: 134%
O=C(c1cccc(S(=O)(=O)N2CCOCC2)c1)N1CCCCC1	inactive: 97%
CCc1ccccc1Nc1nn2c(=O)c3ccc(C(=O)NCc4cccs4)cc3nc2s1	inactive: 70%
CCc1ccc2[nH]c(=O)c(CN(CCN(C)C)C(=O)Nc3ccccc3Cl)cc2c1	inactive: 97%
CNC(=O)c1cc2c(n(-c3ccc(C)cc3)c1=O)CC(C)(C)CC2=O	inactive: 93%
Cc1cc(C)c(Nc2nn3c(=O)c4cc5c(cc4nc3s2)OCO5)c(C)c1	inactive: 51%
O=C(Nc1ccc2nc(SCC(=O)N3CCOCC3)sc2c1)c1ccc(F)cc1	inactive: 82%
COc1cccc(C(=O)Nc2ccc3oc(-c4ccc5ccccc5c4)nc3c2)c1	inactive: 55%
COc1cc(OC)cc(-c2nc3nc(C)c(CCC(=O)Nc4ccc(Cl)cc4)c(C)n3n2)c1	inactive: 65%
CNC(=O)C1CC(=O)N(c2ccc(OC)cc2)C1 (stereo unspecified)	inactive: 97%
COc1ccc(-c2c3c(=O)n(C)c(=O)n(C)c3c3c(-c4ccccc4)nc4ccccc4n23)cc1	inactive: 77%
O=C(Nc1ccccc1F)C(Cc1ccccc1)n1cccc1 (stereo unspecified)	inactive: 77%
COc1ccc(Cn2c(C(=O)O)c(CNCc3cccs3)c3ccc(C)cc32)cc1	inactive: 89%
COc1ccccc1N1CCN(c2cc(N3CCCC3)nc(C)n2)CC1	inactive: 98%
Cc1ccc2c(=O)cc(C(=O)Nc3nnc(CC(C)C)s3)oc2c1C	inactive: 61%
CCc1ccc(NC(=O)Cn2c(=O)c(-c3ccccc3NC(C)=O)nc3ccccc32)cc1	active: 44%
O=C(O)CSCCn1cccn1	inactive: 93%

Compound	survival
Oc1c(C(c2ccc(Cl)cc2Cl)N2CCOCC2)sc2nc(-c3ccco3)nn12 (stereo unspecified)	inactive: 91%
CCOC(=O)c1cc2c(ccn2-c2ccc(F)cc2)n1CC(=O)c1ccc2c(c1)OCCO2	inactive: 100%
CCOc1ccc(S(=O)(=O)N(CC(=O)NCCSCc2ccc(C)cc2)c2ccccc2)cc1	inactive: 77%
CCn1ccc2cc(S(=O)(=O)N3CCCN(C(=O)Nc4ccccc4C(F)(F)F)CC3)ccc21	inactive: 135%
Cc1ccsc1CNCCCO	inactive: 92%
Cc1ccc(C)n1-c1nnc(N2CCC(C(=O)Nc3ccccc3Br)CC2)s1	inactive: 91%
CCc1ccc(NC(=O)c2ccc3c(c2)N(Cc2ccc(C)cc2)CCS3)cc1	inactive: 77%
CCn1c(SCC(=O)Nc2ccc(C)cc2Br)nnc1-c1nonc1NC(C)=O	inactive: 44%
O=C(CC1N=C2c3ccccc3N=C(SCC(=O)Nc3cccc(Cl)c3)N2C1=O)NCc1cccs1 (stereo unspecified)	inactive: 119%
Cc1cccc(Cn2c(=O)n(CCC(=O)NCc3ccc4c(c3)OCO4)c(=O)c3sccc32)c1	inactive: 75%
CC1CCN(S(=O)(=O)c2ccc(N3CCCCS3(=O)=O)cc2)CC1	inactive: 71%
COc1ccc(CCNC(=O)Cn2cc(S(=O)(=O)Cc3ccccc3F)c3ccccc32)cc1OC	inactive: 80%
COc1ccccc1CNc1cc(-c2ccccc2)nc2nncn12	inactive: 66%
CCOc1cccc(C(=O)Nc2c(C(=O)c3ccc(OC)cc3)oc3ccccc23)c1	active: 28%
NC(=O)c1ccc(NC(=O)c2cc3ccccc3oc2=O)cc1	inactive: 81%
CC(=O)c1ccc(C(=O)N(CCCN(C)C)c2nc3c(C)c(C)ccc3s2)cc1	inactive: 108%
COc1ccc(N2Cc3cccc(C(=O)Nc4ccc(C(C)C)cc4)c3C2=O)cc1	inactive: 70%
CS(=O)(=O)NCC(c1ccco1)N1CCN(c2ccccc2)CC1 (stereo unspecified)	inactive: 62%
CCc1ccccc1N(C)C(=O)C1CCCN(c2ncnc3onc(-c4ccc(F)cc4)c23)C1 (stereo unspecified)	inactive: 80%
Cc1ccc(OCCn2c(CNc3cccc(C)c3)nc3ccccc32)cc1	active: -3%
CCCN1CCc2nc(N3CCN(CC)CC3)ncc2C1	inactive: 72%
CC1(C)Cc2c(sc3ncn4nc(CSc5nc6ccccc6o5)nc4c23)C(C)(C)N1	inactive: 83%
C=Cn1c(C(=O)O)cc(CC)c1-c1ccccc1	inactive: 80%

Compound	survival
Cc1ccc(NC(=O)c2sc(-n3nc(C)c(CCC(C)C)c3C)nc2C)cc1C	inactive: 57%
CCCNc1nc2ccccc2s1	inactive: 66%
O=C(CN(c1ccc(Cl)c(C(F)(F)F)c1)S(=O)(=O)c1ccccc1)N1CCc2ccccc2C1	inactive: 42%
O=C(c1ccc(Cl)cc1)N1CCC(c2nc(-c3ccc(F)cc3)no2)CC1	inactive: 106%
CCn1nnnc1SCC(=O)c1ccc(OC)cc1OC	inactive: 74%
COc1ccc(NC(=O)CSc2ncc3c(n2)-c2cc(Cl)ccc2N(Cc2ccccc2F)S3(=O)=O)cc1	inactive: 70%
CCCSc1ncc(Cl)c(C(=O)Nc2ccc(S(=O)(=O)Nc3ncccn3)cc2)n1	inactive: 67%
CC(=O)Nc1ccc(S(=O)(=O)c2cc(O)ccc2O)cc1	inactive: 75%
Cc1cc(C)c2c(=O)cc(C(=O)Nc3sc4c(c3C(=O)NCc3ccccc3)CCCC4)oc2c1	inactive: 57%
CC1CC(C(F)(F)F)n2ncc(C(=O)O)c2N1 (stereo unspecified)	inactive: 101%
CC(C)c1cc(C(F)(F)F)n2nc(C(=O)O)cc2n1	inactive: 90%
O=C(Nc1ccc2oc(-c3ccccc3F)nc2c1)c1ccccc1Cl	active: 49%
Cc1cccc(CSc2ncc(CO)n2Cc2ccc(F)cc2)c1	inactive: 130%
Cc1ccc2c(c1)-c1nc(-c3ccc(Cl)cc3)cc(-c3coc4ccccc4c3=O)c1CO2	inactive: 130%
Cc1ccc2c(c1)N(CCC(=O)NCc1ccc(F)cc1)C(=O)CO2	inactive: 62%
COc1cccc(CNC(=O)c2ccc(CSc3nc4ccncc4n3Cc3cccc(C)c3)cc2)c1	inactive: 89%
CCOCCc1nn2c(=O)cc(COC(=O)CNC(=O)c3ccc(C(C)(C)C)cc3)nc2s1	inactive: 113%
Cc1ccc(Cl)cc1N1CCN(S(=O)(=O)c2ccc3[nH]c4c(c3c2)CCCCC4)CC1	inactive: 62%
COc1cc(NC(=O)CCc2c(C)nn(-c3ccc4nncn4n3)c2C)cc(OC)c1OC	inactive: 83%
COc1ccc2ncc(C(=O)O)c(NCCO)c2c1	inactive: 69%
Fc1ccc(-n2ncc3c(NCCCN4CCOCC4)ncnc32)cc1	inactive: 64%
Cn1ccnc1SCC(=O)n1c2c(c3ccccc31)CCCC2	inactive: 100%
COc1cc(-c2nnc(SCCOc3ccc(Cl)cc3C)o2)cc(OC)c1OC	inactive: 104%

Compound	survival
CCOC(=O)c1c(NC(=O)CSc2cn(CCNC(=O)c3ccccc3F)c3ccccc23)sc2c1CCC2	inactive: 89%
COC(=O)c1cc(S(=O)(=O)NCC2CCN(Cc3ccc(F)cc3)CC2)cn1C	inactive: 109%
O=C(Nc1ccc2nc(SCC(=O)N3CCCc4ccccc43)sc2c1)c1cccc(F)c1	inactive: 84%
Cc1cccc(OCC(=O)Nc2c(C)ccc3nsnc23)c1C	inactive: 98%
CCc1ccc(S(=O)(=O)c2nnn3c2nc(N2CCC(C)CC2)c2cc(Cl)ccc23)cc1	inactive: 115%
O=C(Cn1nc(-c2ccc3c(c2)OCCO3)ccc1=O)Nc1ccc(N2CCOCC2)cc1	inactive: 110%
COc1ccc(-c2cc(C(=O)NCc3cc(OC)c(OC)c(OC)c3)[nH]n2)cc1	inactive: 74%
Cc1ccc(Cl)c2c1N[C@@H](c1ccc(C(=O)O)cc1)[C@H]1CC=C[C@@H]21	active: -10%
O=C(CSc1ncc(S(=O)(=O)c2ccc(Br)cc2)c(=O)[nH]1)NCc1ccc(Cl)cc1	inactive: 76%
Cc1ccc(C)c(NC(=O)CCN2C(=O)c3ccccc3Sc3ncccc32)c1	inactive: 79%
O=C(Nc1ccccc1)C(Cc1ccccc1)N1Cc2ccccc2C1=O (stereo unspecified)	inactive: 77%
Cc1c(CC(=O)NCCc2ccccc2F)c(=O)oc2c(C)c3occ(C(C)(C)C)c3cc12	inactive: 51%
O=C(NC(=S)NC1CC1)c1cccnc1	inactive: 65%
COc1ccc(NC(=O)CSc2cn(CC(=O)N3CCOCC3)c3ccccc23)cc1OC	inactive: 87%
COc1cccc(N2CCN(C(=O)c3ccc4c(=O)n(CCc5ccccc5)c(=O)[nH]c4c3)CC2)c1	inactive: 74%
CC(C)COC(=O)/C(C#N)=C\c1ccc(-c2ccccc2Cl)o1	inactive: 67%
COc1ccccc1CNS(=O)(=O)c1cc(C(=O)Nc2cccc(C(F)(F)F)c2)ccc1F	inactive: 77%
COC(=O)Cn1c(O)c(N=NC(=O)c2ccc3c(c2)OCO3)c2ccccc21	inactive: 80%
Cc1cccc(N2C(=O)CSC23C(=O)N(Cc2cccc(F)c2)c2ccccc23)c1 (stereo unspecified)	inactive: 95%
Cc1ccc(C)c(CSc2nc3ncccc3[nH]2)c1	inactive: 73%
Cc1cccc(-c2noc(CN(C(=O)COc3ccc(C(C)C)cc3)C(C)C)n2)c1	active: 11%
CCOC(=O)c1c(C)n(-c2ccccc2)c2ccc(OC(=O)c3ccccc3)cc12	active: 3%

Source: PubChem BioAssay AID463173 (ICCB-Longwood Screening Facility, Harvard Medical School, 2010)
